# The other results are listed elsewhere or left out.
# B1: PhoQ; a variant is named by its letters at X, in order, P23837 (parent)
# chain: MKKLLRLFFPLSLRVRFLLATAAVVLVLSLAYGMVALIGYSVSFDKTTFRLLRGESNLFYTLAKWENNKLHVELPENIDKQSPTMTLIYDENGQLLWAQRDVPWLMKMIQPDWLKSNGFHEIEADVNDTSLLLSGDHSIQQQLQEVREDDDDAEMTHSVAVNVYPATSRMPKLTIVVVDTIPVELKSSYMVWSWFIYVLSANLLLVIPLLWVAAWWSLRPIEALAKEVRELEEHNRELLNPATTRELTSLVRNLNRLLKSERERYDKYRTTLTDLTHSLKTPLXXLQXXLRSLRSEKMSVSDAEPVMLEQISRISQQIGYYLHRASMRGGTLLSRELHPVAPLLDNLTSALNKVYQRKGVNISLDISPEISFVGEQNDFVEVMGNVLDNACKYCLEFVEISARQTDEHLYIVVEDDGPGIPLSKREVIFDRGQRVDTLRPGQGVGLAVAREITEQYEGKIVAGESMLGGARMEVIFGRQHSAPKDE
# Variants of: B1
# Assay: enrichment ratio after two sorts for PhoP signalling (ratio (wild type AVST 3.29)); higher = more functional
# Details: with PhoP (E. coli)
row,Variant,enrichment ratio
1,VCCN,≤ 0.25
2,GRFE,≤ 0.25
3,KMMI,≤ 0.25
4,REYD,≤ 0.25
5,HMYS,≤ 0.25
6,MKNA,≤ 0.25
7,TTKA,≤ 0.25
8,FDAR,≤ 0.25
9,FYGF,≤ 0.25
10,VSDL,≤ 0.25
11,REDV,≤ 0.25
12,CSAT,≤ 0.25
13,KEIN,≤ 0.25
14,YKRC,≤ 0.25
15,LATD,≤ 0.25
16,PAKD,≤ 0.25
17,EYAW,≤ 0.25
18,RSDQ,≤ 0.25
19,GASL,3.66
20,AKNK,≤ 0.25
21,YSMN,≤ 0.25
22,NDVW,≤ 0.25
23,TSHW,≤ 0.25
24,KARK,≤ 0.25
25,WYYR,≤ 0.25

row,Variant,enrichment ratio
1,KDIR,≤ 0.25
2,DIPM,2.64
3,NFTN,≤ 0.25
4,QVPY,≤ 0.25
5,SRVQ,≤ 0.25
6,ELTK,≤ 0.25
7,FHVL,≤ 0.25
8,EGDC,≤ 0.25
9,MCNL,≤ 0.25
10,EPKN,≤ 0.25
11,EDSA,≤ 0.25
12,SWQV,≤ 0.25
13,LSTN,≤ 0.25
14,KTWQ,≤ 0.25
15,NSLF,≤ 0.25
16,NSNA,≤ 0.25
17,SHIH,≤ 0.25
18,MCSV,≤ 0.25
19,FDYI,≤ 0.25
20,VFQS,≤ 0.25
21,QNSP,≤ 0.25
22,VNMN,≤ 0.25
23,RGIS,≤ 0.25
24,RCMT,≤ 0.25
25,NMHR,≤ 0.25

row,Variant,enrichment ratio
1,IVIV,≤ 0.25
2,TVTH,4.6
3,QGHW,≤ 0.25
4,RWGT,≤ 0.25
5,PGSR,≤ 0.25
6,FDPM,≤ 0.25
7,LYSW,≤ 0.25
8,VIRK,≤ 0.25
9,EGMN,≤ 0.25
10,KHFC,≤ 0.25
11,IPAF,≤ 0.25
12,HMRK,≤ 0.25
13,TASG,9.06
14,VEKN,≤ 0.25
15,DFCW,≤ 0.25
16,NWAM,≤ 0.25
17,ATWV,≤ 0.25
18,YEKA,≤ 0.25
19,QYDP,≤ 0.25
20,MRDK,≤ 0.25
21,MAMN,≤ 0.25
22,MIAA,11.7
23,NGCW,≤ 0.25
24,VMIL,≤ 0.25
25,QKSK,≤ 0.25

row,Variant,enrichment ratio
1,IPRV,≤ 0.25
2,KFIC,≤ 0.25
3,QFLN,≤ 0.25
4,PENL,≤ 0.25
5,QMWL,≤ 0.25
6,ERDF,≤ 0.25
7,SNYG,≤ 0.25
8,GPQA,≤ 0.25
9,IYQF,≤ 0.25
10,GWEH,≤ 0.25
11,RCFI,≤ 0.25
12,HGIW,≤ 0.25
13,KHRA,≤ 0.25
14,VAYW,≤ 0.25
15,NRES,≤ 0.25
16,DCPE,≤ 0.25
17,LNLF,≤ 0.25
18,QGMA,≤ 0.25
19,QHDN,≤ 0.25
20,MGPR,≤ 0.25
21,QHYV,≤ 0.25
22,MSRI,≤ 0.25
23,HMML,3.47
24,FYCL,≤ 0.25
25,ETQG,≤ 0.25

row,Variant,enrichment ratio
1,GGRV,≤ 0.25
2,LTFD,≤ 0.25
3,KSHQ,≤ 0.25
4,WVGR,≤ 0.25
5,MHVG,≤ 0.25
6,DYEP,≤ 0.25
7,QIQF,≤ 0.25
8,YNID,≤ 0.25
9,YGLL,8.88
10,LGKM,≤ 0.25
11,YWQA,≤ 0.25
12,DPRL,≤ 0.25
13,LYTA,≤ 0.25
14,RKDD,≤ 0.25
15,YHTT,≤ 0.25
16,IIAC,≤ 0.25
17,PAHN,≤ 0.25
18,RKEA,≤ 0.25
19,EKRL,≤ 0.25
20,FLFT,≤ 0.25
21,HYLE,≤ 0.25
22,PWFS,≤ 0.25
23,RASP,≤ 0.25
24,YGLP,≤ 0.25
25,KMDG,≤ 0.25

row,Variant,enrichment ratio
1,EVWP,≤ 0.25
2,VYVS,≤ 0.25
3,DSFQ,≤ 0.25
4,MMRD,≤ 0.25
5,DPFC,≤ 0.25
6,DIQH,≤ 0.25
7,WNFM,≤ 0.25
8,RERV,≤ 0.25
9,HKFF,≤ 0.25
10,VRGM,≤ 0.25
11,LVMV,≤ 0.25
12,VDAN,≤ 0.25
13,VFFV,≤ 0.25
14,IVMG,≤ 0.25
15,IHEA,≤ 0.25
16,YALR,≤ 0.25
17,RCQE,≤ 0.25
18,IFKT,≤ 0.25
19,MMIQ,≤ 0.25
20,ILNF,≤ 0.25
21,WQHD,≤ 0.25
22,MQAG,4.33
23,DIML,≤ 0.25
24,QALH,≤ 0.25
25,SDKR,≤ 0.25

row,Variant,enrichment ratio
1,QADI,≤ 0.25
2,YCFS,≤ 0.25
3,NEWV,≤ 0.25
4,DFKF,≤ 0.25
5,FMSC,≤ 0.25
6,FVSY,≤ 0.25
7,LSAG,≤ 0.25
8,PTSR,≤ 0.25
9,KLVE,≤ 0.25
10,IVCR,≤ 0.25
11,AAVK,≤ 0.25
12,MKSI,≤ 0.25
13,EQPN,≤ 0.25
14,LTNL,0.338
15,TMVA,≤ 0.25
16,SRQS,≤ 0.25
17,VHWI,≤ 0.25
18,QFFP,≤ 0.25
19,TLDP,≤ 0.25
20,QTYA,≤ 0.25
21,DTLI,0.823
22,AIWL,≤ 0.25
23,PGKW,≤ 0.25
24,SVSV,8.24
25,DMII,≤ 0.25

row,Variant,enrichment ratio
1,HLWS,≤ 0.25
2,HWRM,≤ 0.25
3,INIS,≤ 0.25
4,LRPE,≤ 0.25
5,RSQC,≤ 0.25
6,HWKS,≤ 0.25
7,EYNR,≤ 0.25
8,TPVL,≤ 0.25
9,LSCF,≤ 0.25
10,YQEI,≤ 0.25
11,ATIV,8.37
12,IIRQ,≤ 0.25
13,TTFH,2.3
14,ANIQ,11
15,HFVA,≤ 0.25
16,NCPA,≤ 0.25
17,EHQH,≤ 0.25
18,YFEN,≤ 0.25
19,MYCI,≤ 0.25
20,KLTP,≤ 0.25

# Reference: a collection of fitness landscapes (doi:10.1126/science.1257360)
